According to PubChem BioAssay AID596 (National Center for Advancing Translational Sciences (NCATS), 2007):
Hit rate of the full screen: of about 71,000 compounds, about 1,400 (2%) were called active. This list was built around the results that the source calls inconclusive (neither active nor inactive); the mix of calls is not that of the screen. The call rests on the fitted dose curve; in most records, active means well fitted curve in the direction sought with a large enough effect; inconclusive means small, poorly fitted or top-dose-only effect; inactive means no such curve, though single readings can be large or run the other way. Potencies of inconclusive entries are doubtful fits and often do not repeat.

biological target: Microtubule-associated protein tau (Homo sapiens) (UniProt P10636); experiment: qHTS Assay for Tau Filament Binding; conditions: recombinant tau filaments, thioflavin S fluorescence, 15 h, filaments grown with octadecylsulfate alongside compound; series mostly up to 57.1 µM
UniProt P10636, sequence (P10636 whole entry, looked up): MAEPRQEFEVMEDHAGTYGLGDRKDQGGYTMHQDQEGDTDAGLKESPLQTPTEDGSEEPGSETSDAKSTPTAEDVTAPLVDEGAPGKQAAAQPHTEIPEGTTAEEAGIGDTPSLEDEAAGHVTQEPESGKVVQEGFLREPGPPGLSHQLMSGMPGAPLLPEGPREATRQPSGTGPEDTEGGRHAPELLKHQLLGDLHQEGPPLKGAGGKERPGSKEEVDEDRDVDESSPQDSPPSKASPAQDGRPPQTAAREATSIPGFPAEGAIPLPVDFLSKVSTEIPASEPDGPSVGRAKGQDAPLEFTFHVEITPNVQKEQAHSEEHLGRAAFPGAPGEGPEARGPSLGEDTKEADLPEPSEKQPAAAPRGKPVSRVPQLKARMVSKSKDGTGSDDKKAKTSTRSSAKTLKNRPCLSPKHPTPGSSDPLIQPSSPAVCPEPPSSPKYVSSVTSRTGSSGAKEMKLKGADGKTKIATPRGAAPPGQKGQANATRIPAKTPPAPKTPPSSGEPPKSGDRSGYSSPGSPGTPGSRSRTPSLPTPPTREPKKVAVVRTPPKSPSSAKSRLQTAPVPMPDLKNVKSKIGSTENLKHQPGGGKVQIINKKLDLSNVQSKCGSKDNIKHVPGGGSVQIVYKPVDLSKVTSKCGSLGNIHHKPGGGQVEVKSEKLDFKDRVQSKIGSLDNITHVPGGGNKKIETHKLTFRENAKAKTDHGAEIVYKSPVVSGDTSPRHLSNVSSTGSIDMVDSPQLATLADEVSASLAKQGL
Outline: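 Thioflavine S fluorescence (ex 450, em 510 nm) reports filaments formed from 1 uM human tau plus 30 uM ODS over 15 h at 37 C (10 mM HEPES pH 7.4, 100 mM NaCl, 5 mM DTT); compounds displacing dye or blocking filaments lower signal.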
Potency means the concentration at half of the fitted maximal effect.

SMILES	Potency
O=C(c1cccc(F)c1)N1CCC2(CCCN(Cc3nccs3)C2)CC1	inactive
O=C(c1c(Cl)cccc1Cl)N1CCN(c2ccccn2)CC1	inactive
O=c1c(-c2cc(F)cc(F)c2)nc2cnc(Oc3ccccc3)nc2n1C1CC1	inconclusive: 10 µM [decreasing]
Cc1ccc(OCCCCn2ccnc2)c(Cl)c1	inactive
N#CC(C#N)=c1ccc2c(c1)N1C3=C(CCCC3)CC3CCCCC31N=2 (stereo not given)	active: 1.58 µM
Cc1o[nH]c(=O)c1CC[C@H](N)C(=O)O	inconclusive: 39.8 µM [decreasing]
Cc1c(N=C2Nc3cccc4cccc2c34)c(=O)n(-c2ccccc2)n1C	inconclusive: 5.01 µM [decreasing]
CCCCSc1nnc(-c2cc(Br)ccc2N)c(=O)[nH]1	active: 20 µM
CCCCn1cnc2c(c(CC#N)nn2-c2ccccc2)c1=N	inconclusive: 2.51 µM [decreasing]
COc1ccc(S(=O)(=O)N(C)CC(=O)Nc2ccc3c(c2)OCO3)cc1OC	inconclusive: 39.8 µM [decreasing]
COc1ccc(C(=O)Nc2ccc3c(c2)nc2n3CCSC2)cc1	inconclusive: 39.8 µM [decreasing]
CN(C)CCCCl	inactive
CC(C)Cc1cc(C(=O)Nc2ccc3c(c2)OCO3)no1	inactive
CCc1ccc(C2CC(=O)N3CN(c4ccccc4)CSC3=C2C#N)cc1 (stereo not given)	inconclusive: 6.31 µM [decreasing]
O=C(c1ccc(Cl)s1)N1CCN(c2ccccc2)CC1	inactive
CCOC(=O)[C@@]12C[C@@H]1/C(=N/O)c1ccccc1O2	inconclusive: 39.8 µM [decreasing]
COc1ccc(Cn2c3nc4ccccc4nc3c3c(=O)n(Cc4ccco4)c(C)nc32)cc1	inconclusive: 2.51 µM [decreasing]
COc1ccc(Nc2cc(C(=O)NCCCN3CCN(C)CC3)c3ccccc3n2)cc1	inconclusive: 12.6 µM [decreasing]
CC(=O)N1CCN(c2ccc(OC[C@H]3CO[C@](Cn4ccnc4)(c4ccc(Cl)cc4Cl)O3)cc2)CC1	inconclusive: 39.8 µM [decreasing]
O=C(NCc1ccccc1)c1cc(=O)nc2sc(-c3ccccc3)nn12	inconclusive: 20 µM [decreasing]
O=C(Nc1ccc(N2CCN(C(=O)c3ccco3)CC2)cc1)c1cccs1	inconclusive: 39.8 µM [decreasing]
CN1CCc2cccc3c2[C@@H]1Cc1ccc(O)c(O)c1-3	inconclusive: 39.8 µM [decreasing]

SMILES	Potency
COc1ccc2[nH]c3nc(SCc4nnc(-c5ccccc5)o4)nnc3c2c1	inconclusive: 5.01 µM [decreasing]
CCSc1oc(-c2ccccc2)nc1S(=O)(=O)c1ccccc1	inconclusive: 10 µM [decreasing]
CCOC(=O)c1c(CC(C)C)csc1NC=O	inactive
CN1CC[C@H](CN2c3ccccc3Sc3ccccc32)C1	active: 3.98 µM
COc1ccc2c3c(cccc13)NN=C2C	active: 15.8 µM
Cc1cccc(N(C)S(=O)(=O)c2cccc3nsnc23)c1	inconclusive: 31.6 µM [decreasing]
Cc1cc(O)c(C(C)(C)C)cc1Sc1cc(C(C)(C)C)c(O)cc1C	active: 20 µM
COC(=O)[C@@]1(Cc2ccccc2)[C@H]2c3cc(C(=O)N4CCCC4)n(CCN4CNCC4=O)c3C[C@H]2CN1C(=O)c1ccccc1	inactive
CCOC(=O)c1c(C)[nH]c(C(=O)OCC(=O)Nc2cc(C)ccc2OC)c1C	inactive
CN1CCc2cc(Cl)c(O)cc2[C@@H](c2ccccc2)C1	inconclusive: 31.6 µM [decreasing]
COC(=O)c1cc(NCc2ccc3c(c2)OCO3)ccc1N1CCOCC1	inconclusive: 31.6 µM [decreasing]
CC(C)C[C@@H](CC(=O)N[C@H](CC(=O)N[C@@H]1CCCC[C@H]1C(=O)N[C@H](CC(=O)N[C@@H](CCC(=O)O)CC(=O)O)Cc1ccccc1)C(C)C)NC(=O)[C@@H]1CNCC[C@H]1N	inactive
Cc1ccc2c(c1)c1c3n2CCN[C@H]3CCC1	inconclusive: 39.8 µM [decreasing]
COCCNc1nc(-c2cccc(OC)c2)nc2ccccc12	inactive
COc1cc(C(=O)NCCCCCC(=O)O)cc(OC)c1OC	inactive
NC(=O)CNCCC(c1ccccc1)c1ccccc1	inactive
Nc1ccc(O)c([N+](=O)[O-])c1	inconclusive: 31.6 µM [decreasing]
O=C1C(Cl)=C(NCC2CCCO2)C(=O)N1C1CCCCC1 (stereo not given)	inconclusive: 39.8 µM [decreasing]
O=C(COC(=O)c1cncc(Br)c1)NCCC1=CCCCC1	inactive
CCOC(=O)c1cnc2c(C(=O)OC)cccc2c1NCc1ccco1	active: 12.6 µM
Cc1ccc2cc3cc(C(=O)N4CC(C)CC(C)C4)oc3nc2c1 (stereo not given)	inactive
Cc1cc(NC(=O)c2cc(-c3cccnc3)nc3c(C)c(C)ccc23)no1	inactive

SMILES	Potency
Cc1onc(-c2ccccc2)c1C(=O)Nc1sc2c(c1C(N)=O)CCC2	inconclusive: 31.6 µM [decreasing]
Cn1cc(C(F)(F)F)nc1-c1ccc(OC[C@@H](O)CNCCOc2ccc(O)c(C(N)=O)c2)cc1	inconclusive: 39.8 µM [decreasing]
Cc1nc2cccc(C(=O)NCc3ccccc3)c2o1	inconclusive: 15.8 µM [decreasing]
CCCN(CCC(=O)Nc1cc(OC)cc(OC)c1)CC1CC1	inconclusive: 25.1 µM [decreasing]
Cc1cccc2nc(C(F)(F)F)nc(=O)n12	inactive
C[C@@](N)(C(=O)O)c1ccc(C(=O)O)cc1	inconclusive: 39.8 µM [decreasing]
O=C(CCC(=O)N1CCN(S(=O)(=O)c2ccccc2)CC1)c1cccs1	inconclusive: 31.6 µM [decreasing]
O=C(O)/C(=C/c1c(C(=O)O)[nH]c2cc(Cl)cc(Cl)c12)c1ccccc1	inactive
O=C(Nc1ccccc1C(F)(F)F)c1cc(-c2ccccc2O)on1	inconclusive: 6.31 µM [decreasing]
CC1=CC(C)(C)N(C(=O)c2ccc(F)cc2)c2cc3c(cc21)OCO3	inconclusive: 31.6 µM [decreasing]
c1ccc(Nc2nc(-c3ccoc3)nc3ccccc23)cc1	active: 12.6 µM
N[C@@H](C(=O)O)c1cc(O)ccc1Cl	inconclusive: 39.8 µM [decreasing]
NC(N)=Nc1ccc(Cl)cc1	inconclusive: 39.8 µM [decreasing]
CC1=CC(=O)CC(C)(C)[C@@]1(O)/C=C\C(C)=C\C(=O)O	inconclusive: 39.8 µM [decreasing]
CCOC(=O)c1oc2ccccc2c1CSc1nnc(-c2ccco2)o1	inactive
Fc1ccc(-n2c(-c3ccco3)nc3nc4ccccc4nc32)cc1	active: 12.6 µM
CC(=O)Nc1ccc(C(=O)Nc2ccc3c(c2)OCO3)cc1	active: 20 µM
O=C(O)Cc1nn(Cc2ccc(Br)cc2F)c(=O)c2ccccc12	inconclusive: 39.8 µM [decreasing]
Cc1ccc(OCCSc2nnc(-c3ccncc3)n2C)cc1	inconclusive: 25.1 µM [decreasing]
O=C(CSc1nc2ccccc2[nH]1)N1CCN(c2ccc(F)cc2)CC1	inactive
CCCCC(c1nnnn1C1CCCC1)N1CCN(C2CCCC2)CC1 (stereo not given)	inactive
O=C(O)CCc1c2ccc(=O)c(O)c-2oc2c(O)c(O)ccc12	active: 3.16 µM

SMILES	Potency
CC(C)N=c1cc2n(-c3ccc(Cl)cc3)c3ccccc3nc-2cc1Nc1ccc(Cl)cc1	active: 0.126 µM
COc1ccc(Cn2c(-c3ccco3)nc3oc4cc(OC)ccc4c(=O)c3c2=O)cc1	active: 10 µM
O=c1c2c3nc4ccccc4nc3n(/N=C/c3cccs3)c2ncn1-c1ccccc1	active: 25.1 µM
Cc1ccc2nc(N3CCN(C(=O)c4cccs4)CC3)c(C#N)cc2c1	inconclusive: 39.8 µM [decreasing]
O=C1c2ccccc2-c2ncnc3c(N4CCOCC4)cc(N4CCOCC4)c1c23	active: 5.01 µM
O=C(CSc1nnc(CNC(=O)c2ccccc2F)o1)c1ccc(Cl)cc1	active: 31.6 µM
O=C1CCCc2c1cc(C(=O)Nc1ccc(Br)cn1)c(=O)n2-c1ccccc1	inconclusive: 31.6 µM [decreasing]
COCCn1c(=O)c(-c2cccc(C#N)c2)nc2cnc(OCc3ccccc3)nc21	active: 25.1 µM
O=C(c1cnn2c(C(F)(F)F)cc(-c3ccco3)nc12)N1CCc2ccccc2C1	inconclusive: 20 µM [decreasing]
CNc1ccc(OC(F)F)cc1C(=O)c1ccccc1	inconclusive: 39.8 µM [decreasing]
CCn1c(SCC(=O)Nc2ccc(N(C)C)cc2)nnc1-c1cccc(C)c1	inconclusive: 31.6 µM [decreasing]
CC1C(=O)OC2C(O)C34C5CC(C(C)(C)C)C36C(OC(=O)C6O)OC4(C(=O)O5)C12O (stereo not given)	inconclusive: 39.8 µM [decreasing]
CCCCCC[C@@H]([C@@H](C)O)n1cnc2c(N)ncnc21	inconclusive: 39.8 µM [decreasing]
Cc1cc(NC(=O)Nc2ccc(N(C)C)cc2)c2cc(F)cc(F)c2n1	active: 31.6 µM
c1csc(-c2nnsc2-c2nc3ccccc3[nH]2)c1	inconclusive: 15.8 µM [decreasing]
CSc1nc(-c2ccco2)nn1S(=O)(=O)c1ccc(C)cc1	inactive
Clc1ccc2[nH]c3c(c2c1)CCc1cn[nH]c1-3	active: 15.8 µM
CCOC(=O)C(C)C(C)=O (stereo not given)	inactive
Cc1ccc(S(=O)(=O)Nc2cccc(-c3cn4ccsc4n3)c2)cc1	inactive
